Data reported in article PMC12040169 (PLOS Biology, 2025).
This is one part of the list.

Test system: T1, C. trachomatis L2/434/Bu expressing GFP (CTL2-GFP)
T1 construct: L2/434/Bu GFP intracellular growth in HeLa cells
Design: species or system HeLa; C. trachomatis total inclusion area by high-content imaging, normalised to DMSO
Settings: total inclusion area; 28.5 h, 10 µM; inhibitor
Summary of the method: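 Imaging read-out: GFP inclusions and Hoechst nuclei captured by high-content imaging after fixation. Inclusion area/number = chlamydial growth; nuclei count = host cell viability. MIC calculated per earlier method.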

Question: Cc1cc(OCC(=O)N2CCNC(=O)C2)c2c(C)c(C)c(=O)oc2c1 [CBK307624] was tested. Which “% of control remaining” value did it give?
Answer: 56.4865

Question: How did the “% of control remaining” value turn out when CCN(CC)CCCNC(=O)N1CCCC(C(=O)N(CC)CC)C1 (centres unmarked) [CBK156149] was run?
Answer: 101.482

Question: Which “% of control remaining” value does the source give for COC(=O)c1ccc2c(c1)[n+](CCO)c(C)n2CCO [CBK262443C] here?
Answer: 102.125

Question: How did the “% of control remaining” value turn out when CCOc1ccc(CN(C)C(=O)Cn2nc(C(=O)O)c3ccccc3c2=O)cc1 [CBK297492] was run?
Answer: 88.9284

Question: Which “% of control remaining” value does the source give for CC1CCc2c(sc3ncnc(SC(C)C(=O)OC4CCCCC4)c23)C1 (centres unmarked) [CBK265050] here?
Answer: 119.091

Question: How did the “% of control remaining” value turn out when CC1CCc2nc3ccccc3c(C(=O)N(C)Cc3cnn(C)c3)c2C1 (centres unmarked) [CBK305749] was run?
Answer: 28.4369

Question: How did the “% of control remaining” value turn out when CCN(CC)S(=O)(=O)c1ccc(C)c(NS(=O)(=O)c2cc(C(=O)O)n(C)c2)c1 [CBK297782] was run?
Answer: 102.306

Question: How did the “% of control remaining” value turn out when COc1ccc(Oc2nccnc2N2CCN(Cc3ccc([N+](=O)[O-])cc3)CC2)cc1OC [CBK083046T] was run?
Answer: 60.8679

Question: How did the “% of control remaining” value turn out when CC(C)NC(=O)Cn1cnc2c1c(=O)n(C)c(=O)n2C [CBK133257] was run?
Answer: 93.3004

Question: Which “% of control remaining” value does the source give for O=C1NN=C(CSCCO)Oc2ccccc21 [CBK006771] here?
Answer: 45.5115

Question: For COCc1cccc(Nc2ncnc3c2cnn3CCO)c1 [CBK306214], which “% of control remaining” value is on record?
Answer: 83.9996

Question: For CC(=O)c1ccc(S(=O)(=O)N2CCCCC2C)cc1 (centres unmarked) [CBK069211], which “% of control remaining” value is on record?
Answer: 96.5075

Question: How did the “% of control remaining” value turn out when C(=C\c1nccnc1OCc1cccs1)/c1ccccc1 [CBK106883] was run?
Answer: 95.1156

Question: Which “% of control remaining” value does the source give for COc1ccc(S(=O)(=O)NCCN2CCOCC2)cc1Br [CBK269838] here?
Answer: 81.1792

Question: How did the “% of control remaining” value turn out when CC(C)CC(NC(=O)c1cccnc1)c1nnc2n1CCNCC2 (centres unmarked) [CBK307149] was run?
Answer: 87.5317

Question: Which “% of control remaining” value does the source give for Cc1nn(C)c(Sc2ccccc2)c1[N+](=O)[O-] [CBK002937] here?
Answer: 77.6157

Question: With O=C(NCC(CO)Cc1ccsc1)N1CCN(c2ccncc2)CC1 (centres unmarked) [CBK306929] as the compound, how does the “% of control remaining” value read?
Answer: 47.2495

Question: For Cc1nn(Cc2ccccn2)c(=O)n2cccc12 [CBK283849], which “% of control remaining” value is on record?
Answer: 102.373

Question: Which “% of control remaining” value does the source give for CCN(CC)C(=O)CNS(=O)(=O)Cc1ccccc1[N+](=O)[O-] [CBK034504] here?
Answer: 92.2535

Question: For CC(=O)Nc1nc(OCC(F)(F)F)cnc1-c1ccc2c(c1)OCO2 [CBK145427], which “% of control remaining” value is on record?
Answer: 89.5409

Question: CCOC(=O)c1[nH]c2ccccc2c1NS(=O)(=O)c1ccc(Br)cc1 [CBK047409] was tested. Which “% of control remaining” value did it give?
Answer: 60.5046

Question: How did the “% of control remaining” value turn out when CCOc1cccc(/C=N\NC(=O)C2COc3cc4ccccc4cc3O2)c1O (centres unmarked) [CBK262846] was run?
Answer: 69.6074

Question: Which “% of control remaining” value does the source give for COC(=O)c1ccc(C)c(N(CCO)CCO)c1 [CBK262418] here?
Answer: 100.897

Question: For CCN(CC)CCOC(=O)c1oc2c3c(ccc2c1C)OCCO3 [CBK008676C], which “% of control remaining” value is on record?
Answer: 72.4054

Question: For CCOCCn1c(N2CC(C)CC(C)C2)nc2c1c(=O)[nH]c(=O)n2C (centres unmarked) [CBK306200], which “% of control remaining” value is on record?
Answer: 52.421

Question: COc1ccc(C)cc1NS(=O)(=O)c1cc(I)c2occc2c1 [CBK078531] was tested. Which “% of control remaining” value did it give?
Answer: 88.6162

Question: How did the “% of control remaining” value turn out when CSc1ccccc1CNC(=O)c1cc(Br)cnc1N(C)S(C)(=O)=O [CBK076529] was run?
Answer: 79.057

Question: How did the “% of control remaining” value turn out when O=C1NC2(CCC2)C(=O)N1Cc1coc(-c2cccs2)n1 [CBK305209] was run?
Answer: 81.2927

Question: For O=C(Nc1ccccc1)c1ccccc1OCc1ccc(S(=O)(=O)N2CCOCC2)cc1 [CBK267396], which “% of control remaining” value is on record?
Answer: 100.271

Question: CC(C)[C@@H](CO)Nc1nc(-c2ccc3ccccc3c2)cn2ccnc12 [CBK037445] was tested. Which “% of control remaining” value did it give?
Answer: 100.913

Question: With CN(C)C(=O)NCCNC(=O)c1c[nH]nc1-c1cc2ccccc2o1 [CBK306157] as the compound, how does the “% of control remaining” value read?
Answer: 74.4957

Question: For NC(=O)C1CCN(S(=O)(=O)c2ccc([N+](=O)[O-])cc2)CC1 [CBK261455], which “% of control remaining” value is on record?
Answer: 95.4312

Question: For NS(=O)(=O)c1ccc(C(=O)Nc2cccc3cc[nH]c23)cc1 [CBK160094], which “% of control remaining” value is on record?
Answer: 103.607

Question: With O=[N+]([O-])c1cc(Nc2ncnc3ccccc23)cc(Oc2ccccc2)c1 [CBK293928] as the compound, how does the “% of control remaining” value read?
Answer: 74.2117

Question: For O=C(Nc1ccccc1C(=O)NCCCc1nc2ccccc2[nH]1)c1cccs1 [CBK296641], which “% of control remaining” value is on record?
Answer: 109.989

Question: CC(C)(C)C(=O)NC(N(Cc1ccccc1)Cc1ccccc1)C(Cl)(Cl)Cl (centres unmarked) [CBK261023] was tested. Which “% of control remaining” value did it give?
Answer: 114.477

Question: Cc1nn2c(c1-c1ccccc1)NC(=O)CC2C(=O)O (centres unmarked) [CBK287118] was tested. Which “% of control remaining” value did it give?
Answer: 97.1493

Question: With O=C(c1ccc2occc2c1)N1CCCC2(CCN(C(=O)c3cc(F)c(F)cc3F)C2)C1 (centres unmarked) [CBK137071] as the compound, how does the “% of control remaining” value read?
Answer: 107.242

Question: For COc1cccc(C(O)CN2CCC3(CC2)CC(O)c2cc(Cl)c(C)cc2O3)c1 (centres unmarked) [CBK286342], which “% of control remaining” value is on record?
Answer: 75.4746

Question: Which “% of control remaining” value does the source give for Cn1cc2c(n1)[C@H]1CN(C(=O)c3cc(C(F)(F)F)n(C)n3)C[C@H]1C2 [CBK283399] here?
Answer: 92.324

Question: Which “% of control remaining” value does the source give for O=S(=O)(Nc1ccccc1N1CCCCC1)c1ccc(Cl)cc1 [CBK077063] here?
Answer: 69.7376

Question: Which “% of control remaining” value does the source give for CCOC(=O)CNc1ccc(C(F)(F)F)cc1 [CBK057732] here?
Answer: 72.4778

Question: For COc1ccc(C)cc1OCCO [CBK001975], which “% of control remaining” value is on record?
Answer: 80.778

Question: CCCn1nnc(NC(=O)COc2ccc3ccccc3c2)n1 [CBK265923] was tested. Which “% of control remaining” value did it give?
Answer: 122.665

Question: With O=C(CCc1ccc(=O)[nH]n1)N1CCCCC1c1nc2cc(F)ccc2[nH]1 (centres unmarked) [CBK291107] as the compound, how does the “% of control remaining” value read?
Answer: 113.81

Question: For CCc1ccc(OC(C)c2nnc(SCC(=O)N3c4ccccc4Sc4ccccc43)n2C)cc1 (centres unmarked) [CBK268058], which “% of control remaining” value is on record?
Answer: 109.681

Question: For CCN1CCN(c2cc3c(cc2F)c(=O)c(C(=O)NCCOC)cn3C2CC2)CC1 [CBK300529], which “% of control remaining” value is on record?
Answer: 0.2384

Question: With COc1ccccc1OC(=O)c1ccccc1Cl [CBK090164] as the compound, how does the “% of control remaining” value read?
Answer: 22.4574

Question: With Fc1ccccc1Oc1nnnn1-c1ccccc1 [CBK002526] as the compound, how does the “% of control remaining” value read?
Answer: 83.37

Question: For O=C(NCc1ccccc1)c1ccco1 [CBK086713], which “% of control remaining” value is on record?
Answer: 98.3636

Question: For CCCOc1ccc(-c2nnn(CC(=O)OCC)n2)cc1 [CBK068817], which “% of control remaining” value is on record?
Answer: 103.897

Question: Which “% of control remaining” value does the source give for Cc1noc(C)c1CN1CCN(CC(CC(=O)Nc2ccccc2)C(=O)O)CC1 (centres unmarked) [CBK286858] here?
Answer: 67.9168

Question: With Cc1cc(=O)n(CC(=O)NCCn2ccnc2)c2ccccc12 [CBK281583] as the compound, how does the “% of control remaining” value read?
Answer: 70.026
